Measurements taken from publication PMC12820563.
Some of the results follow. The list includes weakly bound sequences.

Target: T1, MBP-FoxP3dN (UniProt Q99JB6)
T1 sequence: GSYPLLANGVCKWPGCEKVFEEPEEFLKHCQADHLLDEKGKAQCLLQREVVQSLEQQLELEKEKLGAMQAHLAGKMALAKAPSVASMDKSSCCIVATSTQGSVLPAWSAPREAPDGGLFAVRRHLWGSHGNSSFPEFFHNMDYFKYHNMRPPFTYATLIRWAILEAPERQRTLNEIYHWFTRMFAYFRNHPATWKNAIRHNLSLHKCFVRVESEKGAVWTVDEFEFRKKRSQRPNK
Assay: PD-seq (MBP pull-down with sequencing)
Details: 20 mM Tris-HCl pH 7.5, 100 mM NaCl, 1.5 mM MgCl2, 0.4 uM protein, 0.1 uM dsDNA library, 30 min, room temperature, amylose pull-down; high values mean tight binding; double strand, one strand shown

Sequence | binding signal (RPM ratio (pull-down/input))
GATGATTGTTCTCCCAGCTGATGAATTACAATACTCGAGTAAACAAATTTTCCTAATCTTTCTGTTCAAGCGCCATCTAC | 0.76
GATGATTGTTCTCCCAGCTGATGAATTCCGGAGCTCGAGTAAACAAATTTTCCTAATCTTTCTGTTCAAGCGCCATCTAC | 0.179
GATGATTGTTCTCCCAGCTGATGAATTGAGTCCCTCGAGTAAACAAATTTTCCTAATCTTTCTGTTCAAGCGCCATCTAC | 0.504
GATGATTGTTCTCCCAGCTGATGAATTTGTGTCTTCGAGTAAACAAATTTTCCTAATCTTTCTGTTCAAGCGCCATCTAC | 4.89
GATGATTGTTCTCCCAGCTGATGAATTCACCCCGTCGAGTAAACAAATTTTCCTAATCTTTCTGTTCAAGCGCCATCTAC | 0.253
GATGATTGTTCTCCCAGCTGATGAATTTACTCGTTCGAGTAAACAAATTTTCCTAATCTTTCTGTTCAAGCGCCATCTAC | 0.465
GATGATTGTTCTCCCAGCTGATGAATTGATAGATTCGAGTAAACAAATTTTCCTAATCTTTCTGTTCAAGCGCCATCTAC | 0.495
GATGATTGTTCTCCCAGCTGATGAATTGCCCATTTCGAGTAAACAAATTTTCCTAATCTTTCTGTTCAAGCGCCATCTAC | 0.59
GATGATTGTTCTCCCAGCTGATGAATTAAGAACGTCGAGTAAACAAATTTTCCTAATCTTTCTGTTCAAGCGCCATCTAC | 0.261
GATGATTGTTCTCCCAGCTGATGAATTTAGCCCCTCGAGTAAACAAATTTTCCTAATCTTTCTGTTCAAGCGCCATCTAC | 1.52
GATGATTGTTCTCCCAGCTGATGAATTGCAAGTCTCGAGTAAACAAATTTTCCTAATCTTTCTGTTCAAGCGCCATCTAC | 0.893
GATGATTGTTCTCCCAGCTGATGAATTCTGTGTTTCGAGTAAACAAATTTTCCTAATCTTTCTGTTCAAGCGCCATCTAC | 3.31
GATGATTGTTCTCCCAGCTGATGAATTGCGCCAGTCGAGTAAACAAATTTTCCTAATCTTTCTGTTCAAGCGCCATCTAC | 3.34
GATGATTGTTCTCCCAGCTGATGAATTCGCTGCCTCGAGTAAACAAATTTTCCTAATCTTTCTGTTCAAGCGCCATCTAC | 0.781
GATGATTGTTCTCCCAGCTGATGAATTTACGTTCTCGAGTAAACAAATTTTCCTAATCTTTCTGTTCAAGCGCCATCTAC | 0.763
GATGATTGTTCTCCCAGCTGATGAATTTTAATTTTCGAGTAAACAAATTTTCCTAATCTTTCTGTTCAAGCGCCATCTAC | 0.793

Sequence | binding signal (RPM ratio (pull-down/input))
GATGATTGTTCTCCCAGCTGATGAATTTCCGCACTCGAGTAAACAAATTTTCCTAATCTTTCTGTTCAAGCGCCATCTAC | 0.461
GATGATTGTTCTCCCAGCTGATGAATTTCATGCCTCGAGTAAACAAATTTTCCTAATCTTTCTGTTCAAGCGCCATCTAC | 0.665
GATGATTGTTCTCCCAGCTGATGAATTAAAGGGCTCGAGTAAACAAATTTTCCTAATCTTTCTGTTCAAGCGCCATCTAC | 0.234
GATGATTGTTCTCCCAGCTGATGAATTTCGCTCGTCGAGTAAACAAATTTTCCTAATCTTTCTGTTCAAGCGCCATCTAC | 0.734
GATGATTGTTCTCCCAGCTGATGAATTCGGATTCTCGAGTAAACAAATTTTCCTAATCTTTCTGTTCAAGCGCCATCTAC | 0.557
GATGATTGTTCTCCCAGCTGATGAATTTAAACTTTCGAGTAAACAAATTTTCCTAATCTTTCTGTTCAAGCGCCATCTAC | 0.299
GATGATTGTTCTCCCAGCTGATGAATTTGGACGGTCGAGTAAACAAATTTTCCTAATCTTTCTGTTCAAGCGCCATCTAC | 0.282
GATGATTGTTCTCCCAGCTGATGAATTTGATAACTCGAGTAAACAAATTTTCCTAATCTTTCTGTTCAAGCGCCATCTAC | 0.658
GATGATTGTTCTCCCAGCTGATGAATTCTTATCGTCGAGTAAACAAATTTTCCTAATCTTTCTGTTCAAGCGCCATCTAC | 0.365
GATGATTGTTCTCCCAGCTGATGAATTGGCTTGATCGAGTAAACAAATTTTCCTAATCTTTCTGTTCAAGCGCCATCTAC | 0.601
GATGATTGTTCTCCCAGCTGATGAATTACTCCAGTCGAGTAAACAAATTTTCCTAATCTTTCTGTTCAAGCGCCATCTAC | 0.213
GATGATTGTTCTCCCAGCTGATGAATTCGAGGGTTCGAGTAAACAAATTTTCCTAATCTTTCTGTTCAAGCGCCATCTAC | 0.445
GATGATTGTTCTCCCAGCTGATGAATTTCATCACTCGAGTAAACAAATTTTCCTAATCTTTCTGTTCAAGCGCCATCTAC | 0.799
GATGATTGTTCTCCCAGCTGATGAATTCGTACGCTCGAGTAAACAAATTTTCCTAATCTTTCTGTTCAAGCGCCATCTAC | 0.402
GATGATTGTTCTCCCAGCTGATGAATTCCTGATCTCGAGTAAACAAATTTTCCTAATCTTTCTGTTCAAGCGCCATCTAC | 0.254
GATGATTGTTCTCCCAGCTGATGAATTAACTTAGTCGAGTAAACAAATTTTCCTAATCTTTCTGTTCAAGCGCCATCTAC | 0.295
